These results are taken from US12043670B2, “Anti-BCMA antibody-drug conjugates and methods of use” (Eisai R&D Management Co., Ltd., priority 2020, dated 2024).

The labels stand for the following.
B1: AB200-R1H32-R2Vk19 (antibody)
heavy: QVQLVQSGAEVKKPGSSVKVSCKASGGTFSNYWMHWVRQAPGQGLEWMGATYRSHSDTYYNQKFKSRVTITADKSTSTAYMELSSLRSEDTAVYYCARGAIYHGYDVIDNWGQGTLVTVSSASTKGPSVFPLAPSSKSTSGGTAALGCLVKDYFPEPVTVSWNSGALTSGVHTFPAVLQSSGLYSLSSVVTVPSSSLGTQTYICNVNHKPSNTKVDKKVEPKSC
light: DIQMTQSPSSLSASVGDRVTITCRASQSISSYLNWYQQKPGKAPKLLIYATSNLQSGVPSRFSGSGSGTDFTLTISSLQPEDFATYYCQQYRRLPWSFGQGTKLEIKRTVAAPSVFIFPPSDEQLKSGTASVVCLLNNFYPREAKVQWKVDNALQSGNSQESVTEQDSKDSTYSLSSTLTLSKADYEKHKVYACEVTHQGLSSPVTKSFNRGEC
B2: AB200-R1H32-R2Vk20 (antibody)
heavy: QVQLVQSGAEVKKPGSSVKVSCKASGGTFSNYWMHWVRQAPGQGLEWMGATYRSHSDTYYNQKFKSRVTITADKSTSTAYMELSSLRSEDTAVYYCARGAIYHGYDVIDNWGQGTLVTVSSASTKGPSVFPLAPSSKSTSGGTAALGCLVKDYFPEPVTVSWNSGALTSGVHTFPAVLQSSGLYSLSSVVTVPSSSLGTQTYICNVNHKPSNTKVDKKVEPKSC
light: DIQMTQSPSSLSASVGDRVTITCRASQSISSYLNWYQQKPGKAPKLLIYATSNLQSGVPSRFSGSGSGTDFTLTISSLQPEDFATYYCQQYRRIPWTFGQGTKLEIKRTVAAPSVFIFPPSDEQLKSGTASVVCLLNNFYPREAKVQWKVDNALQSGNSQESVTEQDSKDSTYSLSSTLTLSKADYEKHKVYACEVTHQGLSSPVTKSFNRGEC
B3: AB200-R1H32-R2Vk21 (antibody)
heavy: QVQLVQSGAEVKKPGSSVKVSCKASGGTFSNYWMHWVRQAPGQGLEWMGATYRSHSDTYYNQKFKSRVTITADKSTSTAYMELSSLRSEDTAVYYCARGAIYHGYDVIDNWGQGTLVTVSSASTKGPSVFPLAPSSKSTSGGTAALGCLVKDYFPEPVTVSWNSGALTSGVHTFPAVLQSSGLYSLSSVVTVPSSSLGTQTYICNVNHKPSNTKVDKKVEPKSC
light: DIQMTQSPSSLSASVGDRVTITCRASQSISSYLNWYQQKPGKAPKLLIYATSNLQSGVPSRFSGSGSGTDFTLTISSLQPEDFATYYCQQFRRLPWTFGQGTKLEIKRTVAAPSVFIFPPSDEQLKSGTASVVCLLNNFYPREAKVQWKVDNALQSGNSQESVTEQDSKDSTYSLSSTLTLSKADYEKHKVYACEVTHQGLSSPVTKSFNRGEC
B4: AB200-R1H26-R2Vk5 (antibody)
heavy: QVQLVQSGAEVKKPGSSVKVSCKASGGSFSNYWMHWVRQAPGQGLEWMGATYRIHSDTFYNQKFKGRVTITADKSTSTAYMELSSLRSEDTAVYYCARGAIYHGYDVLDNWGQGTLVTVSSASTKGPSVFPLAPSSKSTSGGTAALGCLVKDYFPEPVTVSWNSGALTSGVHTFPAVLQSSGLYSLSSVVTVPSSSLGTQTYICNVNHKPSNTKVDKKVEPKSC
light: DIQMTQSPSSLSASVGDRVTITCRASQSISSYLNWYQQKPGKAPKLLIYATSNLQIGVPSRFSGSGSGTDFTLTISSLQPEDFATYYCQQFRKLPWSFGQGTKLEIKRTVAAPSVFIFPPSDEQLKSGTASVVCLLNNFYPREAKVQWKVDNALQSGNSQESVTEQDSKDSTYSLSSTLTLSKADYEKHKVYACEVTHQGLSSPVTKSFNRGEC
B5: AB200-R1H26-R2Vk9 (antibody)
heavy: QVQLVQSGAEVKKPGSSVKVSCKASGGSFSNYWMHWVRQAPGQGLEWMGATYRIHSDTFYNQKFKGRVTITADKSTSTAYMELSSLRSEDTAVYYCARGAIYHGYDVLDNWGQGTLVTVSSASTKGPSVFPLAPSSKSTSGGTAALGCLVKDYFPEPVTVSWNSGALTSGVHTFPAVLQSSGLYSLSSVVTVPSSSLGTQTYICNVNHKPSNTKVDKKVEPKSC
light: DIQMTQSPSSLSASVGDRVTITCRASQSISSYLNWYQQKPGKAPKLLIYAASSLQSGVPSRFSGSGSGTDFTLTISSLQPEDFATYYCQQYRRLPWSFGQGTKLEIKRTVAAPSVFIFPPSDEQLKSGTASVVCLLNNFYPREAKVQWKVDNALQSGNSQESVTEQDSKDSTYSLSSTLTLSKADYEKHKVYACEVTHQGLSSPVTKSFNRGEC
B6: AB200-R1H26-R2Vk15 (antibody)
heavy: QVQLVQSGAEVKKPGSSVKVSCKASGGSFSNYWMHWVRQAPGQGLEWMGATYRIHSDTFYNQKFKGRVTITADKSTSTAYMELSSLRSEDTAVYYCARGAIYHGYDVLDNWGQGTLVTVSSASTKGPSVFPLAPSSKSTSGGTAALGCLVKDYFPEPVTVSWNSGALTSGVHTFPAVLQSSGLYSLSSVVTVPSSSLGTQTYICNVNHKPSNTKVDKKVEPKSC
light: DIQMTQSPSSLSASVGDRVTITCRASQSISSYINWYQQKPGKAPKLLIYAASSLQSGVPSRFSGSGSGTDFTLTISSLQPEDFATYYCQQYRRIPWTFGQGTKLEIKRTVAAPSVFIFPPSDEQLKSGTASVVCLLNNFYPREAKVQWKVDNALQSGNSQESVTEQDSKDSTYSLSSTLTLSKADYEKHKVYACEVTHQGLSSPVTKSFNRGEC
B7: AB200-R1H26-R2Vk13 (antibody)
heavy: QVQLVQSGAEVKKPGSSVKVSCKASGGSFSNYWMHWVRQAPGQGLEWMGATYRIHSDTFYNQKFKGRVTITADKSTSTAYMELSSLRSEDTAVYYCARGAIYHGYDVLDNWGQGTLVTVSSASTKGPSVFPLAPSSKSTSGGTAALGCLVKDYFPEPVTVSWNSGALTSGVHTFPAVLQSSGLYSLSSVVTVPSSSLGTQTYICNVNHKPSNTKVDKKVEPKSC
light: DIQMTQSPSSLSASVGDRVTITCRASQSISSYLNWYQQKPGKAPKLLIYAASSLQSGVPSRFSGSGSGTDFTLTISSLQPEDFATYYCQQFRKIPWTFGQGTKLEIKRTVAAPSVFIFPPSDEQLKSGTASVVCLLNNFYPREAKVQWKVDNALQSGNSQESVTEQDSKDSTYSLSSTLTLSKADYEKHKVYACEVTHQGLSSPVTKSFNRGEC
B8: AB200-R1H26-R2Vk10 (antibody)
heavy: QVQLVQSGAEVKKPGSSVKVSCKASGGSFSNYWMHWVRQAPGQGLEWMGATYRIHSDTFYNQKFKGRVTITADKSTSTAYMELSSLRSEDTAVYYCARGAIYHGYDVLDNWGQGTLVTVSSASTKGPSVFPLAPSSKSTSGGTAALGCLVKDYFPEPVTVSWNSGALTSGVHTFPAVLQSSGLYSLSSVVTVPSSSLGTQTYICNVNHKPSNTKVDKKVEPKSC
light: DIQMTQSPSSLSASVGDRVTITCRASQSISSYLNWYQQKPGKAPKLLIYAASSLQSGVPSRFSGSGSGTDFTLTISSLQPEDFATYYCQQYRRIPWTFGQGTKLEIKRTVAAPSVFIFPPSDEQLKSGTASVVCLLNNFYPREAKVQWKVDNALQSGNSQESVTEQDSKDSTYSLSSTLTLSKADYEKHKVYACEVTHQGLSSPVTKSFNRGEC
B9: AB200-R1H26-R2Vk11 (antibody)
heavy: QVQLVQSGAEVKKPGSSVKVSCKASGGSFSNYWMHWVRQAPGQGLEWMGATYRIHSDTFYNQKFKGRVTITADKSTSTAYMELSSLRSEDTAVYYCARGAIYHGYDVLDNWGQGTLVTVSSASTKGPSVFPLAPSSKSTSGGTAALGCLVKDYFPEPVTVSWNSGALTSGVHTFPAVLQSSGLYSLSSVVTVPSSSLGTQTYICNVNHKPSNTKVDKKVEPKSC
light: DIQMTQSPSSLSASVGDRVTITCRASQSISSYLNWYQQKPGKAPKLLIYAASSLQSGVPSRFSGSGSGTDFTLTISSLQPEDFATYYCQQFRRLPWTFGQGTKLEIKRTVAAPSVFIFPPSDEQLKSGTASVVCLLNNFYPREAKVQWKVDNALQSGNSQESVTEQDSKDSTYSLSSTLTLSKADYEKHKVYACEVTHQGLSSPVTKSFNRGEC
B10: AB200-R1H26-R2Vk14 (antibody)
heavy: QVQLVQSGAEVKKPGSSVKVSCKASGGSFSNYWMHWVRQAPGQGLEWMGATYRIHSDTFYNQKFKGRVTITADKSTSTAYMELSSLRSEDTAVYYCARGAIYHGYDVLDNWGQGTLVTVSSASTKGPSVFPLAPSSKSTSGGTAALGCLVKDYFPEPVTVSWNSGALTSGVHTFPAVLQSSGLYSLSSVVTVPSSSLGTQTYICNVNHKPSNTKVDKKVEPKSC
light: DIQMTQSPSSLSASVGDRVTITCRASQSISSYINWYQQKPGKAPKLLIYAASSLQSGVPSRFSGSGSGTDFTLTISSLQPEDFATYYCQQYRRLPWSFGQGTKLEIKRTVAAPSVFIFPPSDEQLKSGTASVVCLLNNFYPREAKVQWKVDNALQSGNSQESVTEQDSKDSTYSLSSTLTLSKADYEKHKVYACEVTHQGLSSPVTKSFNRGEC
B11: AB200-R1H26-R2Vk12 (antibody)
heavy: QVQLVQSGAEVKKPGSSVKVSCKASGGSFSNYWMHWVRQAPGQGLEWMGATYRIHSDTFYNQKFKGRVTITADKSTSTAYMELSSLRSEDTAVYYCARGAIYHGYDVLDNWGQGTLVTVSSASTKGPSVFPLAPSSKSTSGGTAALGCLVKDYFPEPVTVSWNSGALTSGVHTFPAVLQSSGLYSLSSVVTVPSSSLGTQTYICNVNHKPSNTKVDKKVEPKSC
light: DIQMTQSPSSLSASVGDRVTITCRASQSISSYLNWYQQKPGKAPKLLIYAASSLQSGVPSRFSGSGSGTDFTLTISSLQPEDFATYYCQQYRKIPWSFGQGTKLEIKRTVAAPSVFIFPPSDEQLKSGTASVVCLLNNFYPREAKVQWKVDNALQSGNSQESVTEQDSKDSTYSLSSTLTLSKADYEKHKVYACEVTHQGLSSPVTKSFNRGEC
B12: AB200-R1H26-R2Vk16 (antibody)
heavy: QVQLVQSGAEVKKPGSSVKVSCKASGGSFSNYWMHWVRQAPGQGLEWMGATYRIHSDTFYNQKFKGRVTITADKSTSTAYMELSSLRSEDTAVYYCARGAIYHGYDVLDNWGQGTLVTVSSASTKGPSVFPLAPSSKSTSGGTAALGCLVKDYFPEPVTVSWNSGALTSGVHTFPAVLQSSGLYSLSSVVTVPSSSLGTQTYICNVNHKPSNTKVDKKVEPKSC
light: DIQMTQSPSSLSASVGDRVTITCRASQSISSYINWYQQKPGKAPKLLIYAASSLQSGVPSRFSGSGSGTDFTLTISSLQPEDFATYYCQQFRRLPWTFGQGTKLEIKRTVAAPSVFIFPPSDEQLKSGTASVVCLLNNFYPREAKVQWKVDNALQSGNSQESVTEQDSKDSTYSLSSTLTLSKADYEKHKVYACEVTHQGLSSPVTKSFNRGEC

A short description of one series: ThermoFluor thermostability (Tm). It counts as physicochemical. The settings on record: Fab fragment; light chain clone paired with heavy chain AB200_R1_VH32.
On to B1, for which the Tm is 77.794 °C. On the same count and under the same terms, the result for B2 reads 78.369 °C; that for B3, 81.462 °C.

Still in this series, the particulars now being: Light chain screening Round 2; Fab, paired with heavy chain AB200_R1_VH26.
B4: the Tm is 82.925 °C. The same measure, in the same setting: the figure for B5 is 79.850 °C; for B6 it is 80.321 °C; for B7 it is 83.187 °C. Still for that read-out and setting: the result for B8 reads 80.527 °C; that for B9, 82.940 °C; that for B10, 79.433 °C.

Regarding B11, the Tm was 79.775 °C.

For B12, the Tm amounted to 83.455 °C.
